Experimental data from PubChem BioAssay AID1347417 (National Center for Advancing Translational Sciences (NCATS), 2020).
In all, about 120,000 compounds went through this assay and about 5,300 (4.4%) were called active. Inconclusive results, whose numbers are uncertain, are shown with a selection of clear calls. Calls come from the whole dose curve; as a rule, active = well fitted inhibition curve with a large enough effect; inconclusive = small, poorly fitted or top-dose-only effect; inactive = no such curve, though single readings can be large or run the other way. A potency beside an inconclusive call is a rough fit, not a confirmed value.

Assay: qHTS Primary assay for Inhibitors of Plasmodium falciparum Dd2 growth in vitro; note: nearly all actives have a fitted effect of over 65% in size;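 for activity, negative = inhibition: plate controls were DMSO vehicle for no effect and reference drug for full effect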
Conditions: P. falciparum Dd2 growth, SYBR Green, 72 h; activity, negative = inhibition: at 28.9 µM (top of the series) unless noted; series mostly up to 28.9 µM
How it was run: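 Infected erythrocytes (Dd2, 0.3% parasitemia, 2.5% hematocrit final) are added to compound in RPMI-1640/Albumax II medium, grown 72 h at 37C in low oxygen, then lysed with saponin/Triton-X containing SYBR Green and read by fluorescence.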
Potency is the fitted concentration of half-maximal effect; tags give direction and shape of the fitted curve.

Compound | Potency | outcome | activity, negative = inhibition
COc1ccccc1CNC(=O)c1ccc(Nc2nc3ccccc3n3nnnc23)cc1 | inconclusive: 17.8 µM [inhibitor, single point] |  | 
CCOc1ccc(/C=C/c2nc3ccccc3n2S(=O)(=O)c2cccc(Cl)c2)cc1 | active: 3.55 µM |  | 
O=C(c1cccc2[nH]ccc12)N1CCC2(CC1)N=C(c1cccc(Br)c1)NO2 | inconclusive: 12.6 µM [inhibitor, single point] |  | 
O=C(Nc1cccnc1)c1ccnc(-c2nnc3ccc(Nc4ccccc4)nn23)c1 | inconclusive: 3.16 µM [inhibitor, partial curve, poor fit] |  | 
O=C(c1ccccc1-c1ncc[nH]1)N1CC[C@@H](c2ccc3c(c2)OCO3)[C@H](O)C1 | inconclusive: 0.708 µM [inhibitor, full curve, poor fit] |  | 
COc1ccccc1C(=O)NC1CCCN(c2cc(-c3ccc(F)cc3)[nH]n2)C1 (centres undefined) | inconclusive: 1.41 µM [inhibitor, partial curve] |  | 
Cc1nc(CCC(=O)N2CCCC(CCc3c(F)cccc3F)C2)n[nH]1 (centres undefined) | inactive |  | 
CCOc1ccc(C(=O)Nc2ccc3nc(SCC(=O)N(C)c4ccccc4)sc3c2)cc1 | active: 8.91 µM |  | 
CCOC(=O)c1cc(-c2ccc(OC)cc2)n(CCC(=O)Nc2ccc(OC)cc2OC)c1C | inconclusive: 3.55 µM [inhibitor, single point] |  | 
O=C(Cc1ccc2c(c1)OCO2)N1CC(COc2ccccc2)C2(C1)CN(c1ccccc1)C2 (centres undefined) | inactive |  | 
Cc1cccc(OCC2(CNCC(C)C)C[C@@H](O)[C@@H](O)C2)n1 (some centres undefined) | inconclusive: 10 µM [inhibitor, partial curve] |  | 
O=C(c1ccccc1F)N1CCC2(CC1)COc1ccccc1CN2 | active: 1.12 µM |  | 
COCc1nc(CCNC(=O)CCCc2cn(Cc3ccccc3Cl)c3ccccc23)no1 | inactive |  | 
O=C(NCc1ccccc1)N1CCc2c(sc3c2CCCC3)C1c1ccccc1 (centres undefined) | inconclusive: 17.8 µM [inhibitor, single point] |  | 
COC(=O)c1ccc2c(=O)n(CCCCCC(=O)NC(C)C)c(=O)[nH]c2c1 | inconclusive: 17.8 µM [inhibitor, single point] |  | 
CSc1ccc(-c2noc(-c3ncn4c3COC(c3ccc(F)cc3)C4)n2)cc1 (centres undefined) | inconclusive: 17.8 µM [inhibitor, single point] |  | 
Cc1cccc(NC(=O)CN2C(=O)C(c3ccccc3)=NC23CCCC3)c1C | inactive |  | 
CCOC(=O)C1(C)C=C(Nc2cccc(C)c2)C(=O)N1c1ccccc1 (centres undefined) | inconclusive: 17.8 µM [inhibitor, single point] |  | 
CN(CCCN1c2ccccc2CCc2ccccc21)C(=O)[C@H]1CCC[C@@H](O)C1 | inconclusive: 10 µM [inhibitor, single point] |  | 
COCc1c(C(=O)N[C@@H]2CN(Cc3ccccc3)C[C@H]2CN(C)C)noc1C | inconclusive: 8.91 µM [inhibitor, partial curve, poor fit] |  | 
O=C(C1CCC1)N1CCCC(c2noc(COc3ccccc3)n2)C1 (centres undefined) | inconclusive: 12.6 µM [inhibitor, single point] |  | 
COC(=O)c1ccc(Nc2ncnc3c2cnn3-c2ccccc2)cc1 | inconclusive: 11.2 µM [inhibitor, single point] |  | 

Compound | Potency | outcome | activity, negative = inhibition
COc1ccc(C(=O)N2CCC(Oc3nccnc3N(C)C)C2)c(OC)c1 (centres undefined) | inconclusive: 17.8 µM [inhibitor, single point] |  | 
Cc1noc(-c2cccc(OC3CN(C(=O)c4cc(F)ccc4F)C3)c2)n1 |  | inactive [at 5.79 µM] | 
O=C(CCc1ccnc(N2CCOCC2)c1)Nc1ccc2c(c1)OCO2 | inconclusive: 10 µM [inhibitor, single point] |  | 
COc1cccc(-c2nc(SCC(=O)NC3CCCC3)c(-c3ccc(F)cc3)[nH]2)c1 | inconclusive: 12.6 µM [inhibitor, single point] |  | 
CC1CCN(S(=O)(=O)c2ccc3nc(Nc4cccc(C(F)(F)F)c4)ccc3c2)CC1 | active: 4.47 µM |  | 
Cc1ccc(S(=O)(=O)N2CCN(C3CCN(C)C3=O)CC2)cc1C (centres undefined) | inactive |  | 
COc1cccc(N2C(=O)NC(=NC3CCCCC3)C23CCN(CC2CCCCC2)CC3)c1 | inconclusive: 12.6 µM [inhibitor, partial curve, poor fit] |  | 
Cc1ccccc1N(C)C1CN(Cc2ccccc2)C1 | inconclusive: 1.58 µM [inhibitor, full curve] |  | 
COc1ccc(Cl)cc1NC(=O)CSc1nc(-c2ccccc2)c2ccccc2n1 | inconclusive: 10 µM [inhibitor, single point] |  | 
O=c1c2nc(-c3ccsc3)ccc2ncn1-c1ccc(F)cc1F | inconclusive: 20 µM [inhibitor, single point] |  | 
CCc1ccc(C(=O)N2CCN(c3cc(-c4ccc(OC)cc4)[nH]n3)CC2)cc1 | inactive |  | 
Cc1ccc2nc(N(Cc3cccnc3)C(=O)c3cccs3)sc2c1 | inconclusive: 10 µM [inhibitor, single point] |  | 
CCOc1ccc(N2CC(c3nc4ccccc4n3Cc3cccc(C)c3)CC2=O)cc1 (centres undefined) | inconclusive: 11.2 µM [inhibitor, single point] |  | 
Cc1noc(C)c1CC(=O)NCCc1noc(C2CC2)n1 | inactive |  | 
CCC(=O)N(C1CCOCC1)C1CCN(S(=O)(=O)c2ccc(F)c(F)c2)CC1 | inconclusive: 7.94 µM [inhibitor, single point] |  | 
CCc1nc2c(cnn2-c2ccc(Cl)cc2)c(=O)n1-c1ccc(OC)c(Cl)c1 |  |  | inconclusive: -69.8% [inhibitor] [at 5.79 µM]
CCOc1ccccc1C(=O)Nc1cc2c(cc1N1CCOCC1)n(C)c(=O)n2C | inconclusive: 12.6 µM [inhibitor, single point] |  | 
c1ccc(CC2=NOC3(CCN(Cc4ccccc4)C3)C2)cc1 (centres undefined) | active: 4.47 µM |  | 
COc1ccc(-c2ccc3nnc(CNC(=O)c4cccc(NC(C)=O)c4)n3n2)cc1 | inconclusive: 5.01 µM [inhibitor, partial curve] |  | 
COc1ccc(C2Cn3cnc(C(=O)N4CCC(C(=O)Nc5ccccc5F)CC4)c3CO2)cc1 (centres undefined) | active: 11.2 µM |  | 
O=C(CCCc1c[nH]c2ccccc12)N1CCC(c2noc(COc3ccc(F)cc3)n2)CC1 | inconclusive: 2.24 µM [inhibitor, single point] |  | 
Cc1noc(C)c1S(=O)(=O)NCC(=O)N1CCCCCCNC(=O)CC1c1ccccc1 (centres undefined) | inconclusive: 1.26 µM [inhibitor, full curve, poor fit] |  | 

Compound | Potency | outcome | activity, negative = inhibition
CC(C)CN1C(=O)c2cccn2CC1C(=O)Nc1ccccc1F (centres undefined) | inconclusive: 15.8 µM [inhibitor, single point] |  | 
CCOc1ccc(CNC(=O)C2CCN(Cc3cc4ccccc4n3Cc3ccccc3C)CC2)cc1 | inactive |  | 
O=C(c1nnc(CN2CCN(c3ccccn3)CC2)n1-c1cccnc1)N1CCC[C@@H]1c1cccc(F)c1 | inconclusive: 6.31 µM [inhibitor, partial curve, poor fit] |  | 
Cc1cc(=O)n(CC(=O)NCc2ccccc2Br)c(N2CCc3ccccc3C2)n1 | inconclusive: 2.24 µM [inhibitor, partial curve, poor fit] |  | 
CCCSc1nnc2n(-c3ccc(OC)cc3)c(=O)c3c4c(sc3n12)COC(C(C)C)C4 (centres undefined) | active: 10 µM |  | 
c1ccc(Nc2cc3c(cn2)CN(Cc2ccc4[nH]ccc4c2)CCN3)cc1 | inconclusive: 0.355 µM [inhibitor, full curve, poor fit] |  | 
CC(C)CSc1ccccc1NC(=O)c1sc2nc(-c3ccncc3)ccc2c1N | active: 3.16 µM |  | 
CN(Cc1ccccn1)C(C(=O)O)c1cnn(Cc2ccccc2)c1 (centres undefined) | inactive |  | 
CCCn1c(C)cnc1CC1CCCN(S(=O)(=O)c2cccs2)C1 (centres undefined) | inconclusive: 0.501 µM [inhibitor, partial curve, poor fit] |  | 
Cc1cc(CN(C)C2CCCc3ccccc32)no1 (centres undefined) | inconclusive: 10 µM [inhibitor, partial curve] |  | 
CCOC(=O)c1c(NC(=O)C(C)Oc2ccc(Cl)c(C)c2)sc2c1CCCC2 (centres undefined) | inconclusive: 11.2 µM [inhibitor, single point] |  | 
CCN(C(=O)Cn1nc(Cc2ccncc2)c2ccccc2c1=O)c1cccc(C(F)(F)F)c1 | inconclusive: 11.2 µM [inhibitor, single point] |  | 
C[S+](=O)([O-])N1CCC2(CCN(Cc3cccs3)c3ccccc3O2)CC1 | inconclusive: 4.47 µM [inhibitor, partial curve] |  | 
O=C(NCCc1ccccc1)c1ccc2c(c1)CCN2S(=O)(=O)c1ccccc1 | inconclusive: 17.8 µM [inhibitor, partial curve, poor fit] |  | 
C=CCNC(=O)[C@@H]1Cc2cn(Cc3nccn3C)c3cccc(c23)[C@H](CC(C)C)N1 | inconclusive: 10 µM [inhibitor, partial curve, poor fit] |  | 
CN(CC1CCOCC1)S(=O)(=O)c1ccc(Br)s1 | inactive |  | 
COc1ccc(-n2ncc(C(=O)Nc3ccc4c(c3)OCCO4)c2C2CCN(C(=O)OC(C)(C)C)CC2)cc1 | inconclusive: 10 µM [inhibitor, single point] |  | 
CCOc1ccc(CNC(=O)C2CCCN(S(=O)(=O)N(CC)c3ccc(OCC)cc3)C2)cc1 (centres undefined) | inconclusive: 12.6 µM [inhibitor, single point] |  | 
COCCNC(=O)Cc1ccc(N(Cc2ccc(C)cc2)C(=O)c2ccco2)cc1 | active: 5.62 µM |  | 
Cc1ccc(Nc2sc(C(=O)c3ccccc3)c(N)c2S(=O)(=O)c2ccccc2)c(C)c1 | active: 10 µM |  | 
